# ± gives the standard deviation of the averaged measurements. The list shows a part of the results.
# Test system: PfAP2-G AP2 domain (GST-tagged)
# Test: gcPBM binding intensity (ln(normalized median fluorescence intensity)); higher = stronger DNA binding
# Summary of the method: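 The binding buffer was 1× PBS containing 1% milk, 0.2 mg/ml BSA, 0.5% salmon testes DNA and 0.03% Triton X-100. In it, GST-tagged P. falciparum DNA-binding domains expressed in E. coli were applied for 1 h to an Agilent 4 × 180k array of primer-extended double-stranded 36-bp intergenic genomic probes plus negative controls. Binding intensity, read with Alexa488 anti-GST antibody and a 488 nm scan, is the highest Masliner-normalised natural-log median intensity across replicate spots of either probe orientation.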
row,Sequence,gcPBM binding intensity (ln)
1,TTATGTATTCATTTTTTTTAAGCACCCCAAAATGAT [CACACA_negctrl_site1344],10.8 ± 0.66
2,ATAATATATATATAAACACACAAAAAAAATTATATA [CACACA_site1534],10.045 ± 0.007
3,CAAAATAAAAATAACACACACATTTATTTATATACA [CACACA_site6679],9.87 ± 0.057
4,ATATATGTATATTTATGTACGTATTCCTGTATAGTC [XGTACX_site5763],11.5 ± 0.85
5,TTATTTTCCCTTTGTGCATGCAGTTTACTTTTTGTG [TGCATGCA_site993],10.4 ± 0.28
6,ACACATATATTAAATGTGCACTGAAATATGCATATA [GTGCAC_site9936],10.2 ± 0.16
7,ACTTGTAAGAGACACACACACACACGGATATAAATA [CACACA_site6517],10.3 ± 0.3
8,GGAAAAAAAAATAAATGTACGAATTAACATATCAAA [XGTACX_site5653],10.8 ± 0.48
9,ACACAAGCACACAAATGTACATATATATATATATAT [XGTACX_site5146],11 ± 0.57
10,ATTAAACCGTGGGAGCACACACACACACACACACAT [TGCATGCA_negctrl_site72],10.6 ± 0.26
11,TGTTGTATCAATTTTTGTACATAACACATATGTATA [XGTACX_site3666],11 ± 0.47
12,ATTAATTAAAAGGGAACACATAGAAATTATAAAACA [GTGCAC_negctrl_site420],10.21 ± 0.057
13,ATATATATATTATGGGGTACAAACATCAAAAGATTT [XGTACX_site3944],11.4 ± 0.9
14,GTAACATTTTAAATATATACATATAATGTATTTATA [GTGCAC_negctrl_site344],9.675 ± 0.035
15,GGCCCAACTTCTTCTGACGAAAACGTAAATTGTGTG [XGTACX_negctrl_site533],10.14 ± 0.099
16,AATCATATTAGTATGGTGCAACATATATAAATATAT,10 ± 0.24
17,TTCAAGATTTATTATACACACATATTAATATTTATA [CACACA_site6413],9.96 ± 0.2
18,TGTGTAGGGGATATTCTACTTTAAAAATAAATATAT [CACACA_negctrl_site207],10.3 ± 0.4
19,TATAAAAGATTGGAATGTACATAAGAAAAAAATATA [XGTACX_site5028],11.1 ± 0.52
20,TTGTTAAAAGTATCCATTCTTTATTACTTTTGTTTA [XGTACX_negctrl_site532],10.4 ± 0.29
21,ATTGGGTACAAATACACACACATATATATATTAATA [CACACA_site2376],11.3 ± 0.92
22,TGTACCTTATTAATATATTTAACTCGCCTTATATAC [XGTACX_negctrl_site289],10.6 ± 0.32

row,Sequence,gcPBM binding intensity (ln)
1,TCGTAAACATATTGAAAAATATAAAAAGGGGTAATA [CACACA_negctrl_site619],9.74 ± 0.12
2,AATGGTATAATCAATACACACATAATATATATATTG [CACACA_site1658],10.1 ± 0.18
3,TTAAGATATGTATATCGTACATGACATTAAAAATTT [XGTACX_site3352],10.6 ± 0.52
4,AAATAAATACACATATGTACATATTTTATTTTATTT [XGTACX_site2357],11.3 ± 0.68
5,TAAAAAAAATACAAAAGTACACAAAATTATACGTTA [XGTACX_site4656],11.5 ± 0.96
6,AAATTGTAGCACCAAGCATGCTAAAAGGACATATGA [TGCATGCA_site717],10.8 ± 0.34
7,CAAATATAAATATATACATGCATCTATCTATATAAA [TGCATGCA_site369],9.665 ± 0.078
8,AATCAAAAATCAAACGCATGTAGTATAATAGATAAG [TGCATGCA_site753],10.11 ± 0.099
9,AAGATTAAAAATTGCACACAAAAATATATTTTCTAT [CACACA_site1305],10.04 ± 0.028
10,TATAATTTATTAAGGGGTACATATATTTCATGATAA [XGTACX_site5141],11.6 ± 0.81
11,AAATTATATCATTTATTTTTTTATATTTTTTATATT [CACACA_negctrl_site685],9.53 ± 0.22
12,AATTTCCTTTTTTAAAGTACACAAAAGTTCACTTTG [XGTACX_site4460],11.6 ± 0.98
13,AAAAAAAAAAATATCACACACACATAAATATAAACC [CACACA_site2278],10.18 ± 0.057
14,AAATTATATCAATGTTGTACATATTATTTTTTTCTC [XGTACX_site5948],11.1 ± 0.56
15,TAGTATAAAATTATGTGTACACAAATATAACTTTTC [XGTACX_site5971],11.6 ± 0.78
16,AAAAAAAAAAAAAGGTGTACAAGTATAATTACATAA [XGTACX_site534],11.5 ± 0.95
17,TATTTATTGTGATACTTTTATTGTTTAATGATTAAA [CACACA_negctrl_site495],10.3 ± 0.14
18,TGGAGGTCAGTTCACAGTACCCAGAAACTCTACGGA [XGTACX_site4927],11 ± 0.71
19,GGAATAGTAATATATACACACAAATACAGATATATA [CACACA_site4213],10.2 ± 0.26
20,AATTGAATTTTAAAAGAAAAAAAAAAAAAAAAATAA [XGTACX_negctrl_site195],9.66 ± 0.18
21,TAATGTAAAATTTAGAGTACATAAAAAATTGGATGA [XGTACX_site7225],11.5 ± 0.86
22,AAATAAAAAAAGAAACGTACATATATTGGTTTCGTC [XGTACX_site3510],11.2 ± 0.65

# Source: the supplement of paper PMC11417369
